Results published in PubChem BioAssay AID485341 (National Center for Advancing Translational Sciences (NCATS), 2010).
Among all 330,000 compounds or so, about 1,700 (0.52%) were called active. Inconclusive results, whose numbers are uncertain, are shown with a selection of clear calls. The call rests on the fitted dose curve; in most records, active means well fitted inhibition curve with a large enough effect; inconclusive means small, poorly fitted or top-dose-only effect; inactive means no such curve, though single readings can be large or run the other way. Where the call is inconclusive, the potency comes from a doubtful curve fit.
Further: nearly all actives have a fitted effect of over 20% in size.
Potency means the concentration at half of the fitted maximal effect; tags describe the fitted curve by direction and shape.
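Wherever activity change, negative = inhibition is given: plate controls were no compound for no effect and no enzyme for full effect.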

What follows are compounds tested against Beta-lactamase (Escherichia coli (strain K12)) (UniProt P00811) (assay: qHTS Inhibitors of AmpC Beta-Lactamase (assay without detergent)). Conditions: AmpC nitrocefin hydrolysis, absorbance 480 nm, 0.0001% Triton; activity change, negative = inhibition: at 57.1 µM (top of the series) unless noted.
UniProt P00811, sequence (P00811 whole entry, looked up): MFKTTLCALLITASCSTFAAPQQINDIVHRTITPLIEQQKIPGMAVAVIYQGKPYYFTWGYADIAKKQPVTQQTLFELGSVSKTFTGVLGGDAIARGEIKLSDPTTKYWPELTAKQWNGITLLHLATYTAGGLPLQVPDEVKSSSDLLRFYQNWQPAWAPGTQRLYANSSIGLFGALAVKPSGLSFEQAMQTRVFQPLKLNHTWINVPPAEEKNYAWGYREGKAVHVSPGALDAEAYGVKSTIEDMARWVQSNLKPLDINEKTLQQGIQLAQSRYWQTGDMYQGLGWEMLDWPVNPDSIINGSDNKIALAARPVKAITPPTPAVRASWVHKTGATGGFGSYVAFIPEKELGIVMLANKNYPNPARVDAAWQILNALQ
Summary of the method: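 AmpC (5.3 nM in the dispensed reagent) in 20 mM phosphate pH 7.0 with 0.01% (detergent screen) or 0.0001% Triton X-100 was preincubated with compounds for 15 min at room temperature. Nitrocefin was then added from an 800 uM solution, and hydrolysis was followed at 480 nm.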
Cc1ccc(-n2c(C)cc(C(=O)COC(=O)c3ccc[nH]c3=O)c2C)cc1C was tested, and the Potency was inconclusive: 12.6 µM [inhibitor, partial curve]. In the case of Cc1cccc(N2CCN(C(=O)c3ccc4c(c3)NC(=O)C(CSCc3cccc(F)c3)N4)CC2)c1C (configuration not stated), the Potency is reported as inconclusive: 35.5 µM [inhibitor, single point]. For CCN(CC)C(=S)SSC(=S)N(CC)CC, the Potency was inconclusive: 31.6 µM [inhibitor, single point]. With O=C(COc1ccccc1)Nc1sc2c(c1C(=O)NCc1cccnc1)CCCC2 the Potency was inconclusive: 4.47 µM [inhibitor, single point]. With CCOC(=O)C1C(=O)Nc2nc(C)nn2C1c1ccccc1 (configuration not stated) the Potency was inconclusive: 6.31 µM [inhibitor, single point]. CCOC(=O)Cn1c(CN2CCN(C(c3ccccc3)c3ccccc3)CC2)nc2c1c(=O)n(C)c(=O)n2C was tested, and the Potency was inconclusive: 0.562 µM [inhibitor, full curve, poor fit]. In the case of O=C(Cc1ccccc1)NN1CCCCC1, the Potency is reported as “inactive”. Cc1ccc(Nc2nnc(SCC(=O)c3ccc(O)cc3O)s2)cc1 was tested, and the Potency was active: 11.2 µM. For Cc1cc(C(=O)Cn2nc(C(=O)O)c3ccccc3c2=O)c(C)n1-c1ccc(F)cc1, the Potency was inconclusive: 39.8 µM [inhibitor, single point]. In the case of CC(C)Oc1ccc(OCCn2c(=S)[nH]c3c(N)ncnc32)cc1, the Potency is reported as inconclusive: 5.01 µM [inhibitor, partial curve, poor fit]. In the case of CCOc1cc(C(=O)OC(C)C(=O)Nc2ccc(S(N)(=O)=O)cc2)ccc1OCC(=O)N1CCOCC1 (configuration not stated), the Potency is reported as inconclusive: 39.8 µM [inhibitor, single point]. O=C(NCC1CCCO1)c1ccc(COCC(F)(F)C(F)F)cc1 (configuration not stated) was tested, and the activity change, negative = inhibition was inconclusive: 18.2% [inhibitor]. CCn1c(=O)c(C(=O)NNS(=O)(=O)c2ccc(Br)cc2)c(O)c2ccccc21 was tested, and the Potency was inconclusive: 14.1 µM [inhibitor, partial curve]. In the case of O=C(NCc1ccccn1)c1ccc(Cn2cc(Br)cn2)o1, the Potency is reported as inconclusive: 7.94 µM [inhibitor, single point]. For CC(=O)Nc1c2c(nn1-c1ccc(C)cc1C)CSC2, the Potency was inconclusive: 2.51 µM [inhibitor, single point]. For NS(=O)(=O)c1ccc(NC(=S)NC(=O)/C=C/c2cccs2)cc1, the Potency was inconclusive: 28.2 µM [inhibitor, single point]. In the case of CCc1ccc2c(c1)C(c1ccc([N+](=O)[O-])cc1)=NNC(c1ccc(F)cc1)=N2, the Potency is reported as inconclusive: 4.47 µM [inhibitor, single point]. For COc1ccc(CN(C)C(=O)c2ccc(NC(=O)CC3SC(N4CCCC4)=NC3=O)cc2)c(OC)c1OC (configuration not stated), the Potency was inconclusive: 39.8 µM [inhibitor, single point]. In the case of COC(=O)COc1cccc2c(=O)n(CC(=O)N3CCCc4ccccc43)ccc12, the Potency is reported as active: 0.631 µM. For CC(C)N(c1ccccc1)c1ncnc(NCCC(=O)O)c1[N+](=O)[O-], the Potency was active: 0.316 µM. In the case of COc1ccc(OCc2nnnn2-c2ccccc2)cc1, the Potency is reported as inconclusive: 3.98 µM [inhibitor, partial curve, poor fit]. In the case of Cn1nccc1C(=O)NC1CCCc2c1cnn2-c1ccc(C(C)(C)C)cc1 (configuration not stated), the Potency is reported as “inactive”. For COc1ccc(N=Cc2sc(O)c3ccccc23)cc1, the Potency was inconclusive: 4.47 µM [inhibitor, single point]. In the case of CCCCNc1nc2ccccc2n1CC(=O)Nc1c(C)cccc1CC, the Potency is reported as active: 20 µM. O=S(=O)(NCC(c1cccnc1)N1CCN(c2ccc(F)cc2)CC1)c1ccc(F)cc1 (configuration not stated) was tested, and the Potency was inconclusive: 0.316 µM [inhibitor, full curve, poor fit]. For CCCSc1nc(O)c(C(c2ccc(OC)c(O)c2)c2c(O)nc(SCCC)n(C)c2=O)c(=O)n1C, the Potency was inconclusive: 17.8 µM [inhibitor, partial curve]. With Cc1cc(C)cc(N(CCC#N)C(=O)COC(=O)C2CCN(c3ccc(C(F)(F)F)cn3)CC2)c1 the Potency was inconclusive: 39.8 µM [inhibitor, single point]. For CC(Cc1c[nH]c2ccccc12)NC(N)=O (configuration not stated), the Potency was “inactive”. With Cc1oc2ccc(NS(=O)(=O)c3ccc(C(C)(C)C)cc3)cc2c1C(=O)Nc1ccccc1 the Potency was inconclusive: 10 µM [inhibitor, partial curve]. For CCOc1ccccc1NC(=O)Cn1nnc(C(=O)NCc2ccco2)c1N, the Potency was “inactive”. CSc1ccc(S(=O)(=O)NCC(=O)OCC(=O)NCCc2ccccc2)cc1[N+](=O)[O-] was tested, and the Potency was inconclusive: 35.5 µM [inhibitor, single point]. For CC1CCCC(NC(=O)c2ccc(CNc3c(N4CCCC4)c(=O)c3=O)cc2)C1C (configuration not stated), the Potency was inconclusive: 44.7 µM [inhibitor, partial curve, poor fit]. With Cc1cc(C)c(C)c(OCCOCCN2CCOCC2)c1 the Potency was inconclusive: 6.31 µM [inhibitor, single point]. In the case of CSc1nnc(-c2cc3c(s2)-c2ccccc2CC3)o1, the Potency is reported as inconclusive: 5.62 µM [inhibitor, single point]. COc1cccc(/C=C2\Oc3cc(OCC(=O)N4CCCCC4)ccc3C2=O)c1OC was tested, and the Potency was “inactive”. In the case of CCOc1ccc(-c2c(C(=O)N/N=C/c3cccc(Br)c3)nnn2-c2nonc2N)cc1, the Potency is reported as active: 15.8 µM. With Cc1ccc(C(=O)NC2CCCc3ccccc32)cc1[N+](=O)[O-] (configuration not stated) the Potency was inconclusive: 20 µM [inhibitor, single point]. For CCOc1ccc(S(=O)(=O)N2CCN(C(=O)C3CCC3)CC2)cc1, the Potency was inconclusive: 31.6 µM [inhibitor, single point]. With COc1ccccc1-n1c(SCC(=O)Nc2ccc3c(c2)OCO3)nc2c(c1=O)SCC2 the Potency was inconclusive: 1 µM [inhibitor, partial curve, poor fit]. For O=C(Cn1ncc2c3ccccc3n(Cc3ccc(F)cc3)c2c1=O)N1CCN(c2ncccn2)CC1, the Potency was “inactive”. For O=S(=O)(Nc1nccs1)c1ccc(NCc2cc(Br)cc(Br)c2O)cc1, the Potency was inconclusive: 12.6 µM [inhibitor, partial curve]. For Cc1ccc(CC(=O)N(C)CC(=O)Nc2ccc(N3CCOCC3)cc2)cc1C, the Potency was inconclusive: 31.6 µM [inhibitor, single point]. CC(C)(C)C(=O)Nc1nnc(-c2ccccc2)c(-c2ccccc2)n1 was tested, and the Potency was “inactive”. O=C(NCC(c1ccco1)N1CCN(c2ccccc2)CC1)c1cccs1 (configuration not stated) was tested, and the Potency was inconclusive: 35.5 µM [inhibitor, single point]. For CC(NC(=O)Cn1cc2c(n1)CCCCC2)c1ccccc1 (configuration not stated), the Potency was inconclusive: 0.316 µM [inhibitor, full curve, poor fit]. In the case of CCOc1cccc(/C=N/N2C(=O)CSC2=S)c1O, the Potency is reported as inconclusive: 31.6 µM [inhibitor, partial curve]. In the case of Cc1ccc(C)c(C(=O)COc2ccc(C)nc2[N+](=O)[O-])c1, the Potency is reported as “inactive”. O=S(=O)(Nc1cccc(-c2ccc(N3CCCCCC3)nn2)c1)c1ccc(F)cc1 was tested, and the Potency was inconclusive: 2.24 µM [inhibitor, full curve]. With Cn1c(SCC(=O)Nc2ccc(F)cc2)nnc1-c1cccnc1 the Potency was active: 31.6 µM. For COC(=O)c1cc(NC(=O)C2COc3ccccc3O2)cc(C(=O)OC)c1 (configuration not stated), the Potency was active: 0.224 µM. With c1ccc2c(Nc3nc4c(s3)CCCC4)cccc2c1 the Potency was “inactive”. With O=C(NNC(=O)c1cc2cc(Br)ccc2oc1=O)c1ccc(O)cc1O the Potency was inconclusive: 2.24 µM [inhibitor, partial curve, poor fit]. With CN1CCN(CC(=O)N/N=C\c2c[nH]c3ccccc23)CC1 the Potency was inconclusive: 35.5 µM [inhibitor, single point]. With Fc1ccc(/C=C2\CCCC3=C2NC(=S)NC3c2ccc(F)cc2)cc1 (configuration not stated) the Potency was active: 14.1 µM. COc1ccc(CN(C)CC(=O)Nc2ccccc2C(F)(F)F)cc1 was tested, and the Potency was “inactive”. With CCCN(C(=O)CSCc1c(C)noc1C)c1c(N)n(Cc2ccccc2)c(=O)[nH]c1=O the Potency was inconclusive: 39.8 µM [inhibitor, single point]. In the case of O=C(c1cc(-c2ccco2)nn1-c1cccc(Cl)c1)N1CCCCC1, the Potency is reported as inconclusive: 0.631 µM [inhibitor, partial curve, poor fit]. O=C(Nc1cccc(/C=C/c2ccccn2)c1)c1ccc(-n2cncn2)c([N+](=O)[O-])c1 was tested, and the Potency was inconclusive: 25.1 µM [inhibitor, single point]. O=C(NN1C(=O)C2C3C=CC(C4CC34)C2C1=O)c1cccc(Cl)c1 (configuration not stated) was tested, and the Potency was “inactive”. In the case of Cc1ccccc1NC(=S)N1CCC(C(=O)c2ccc(F)cc2)CC1, the Potency is reported as inconclusive: 6.31 µM [inhibitor, single point]. In the case of Cc1ccc(NC(=O)COC(=O)c2ccccc2F)cc1S(=O)(=O)N1CCCCC1, the Potency is reported as inconclusive: 12.6 µM [inhibitor, partial curve]. In the case of CCN(CC)S(=O)(=O)c1ccc(NN)nc1, the Potency is reported as “inactive”. For N=C1/C(=C\c2ccc(OC(=O)c3ccccc3)cc2)C(=O)N=C2SC(N3CCOCC3)=NN12, the Potency was “inactive”. With COC(=O)c1ccc(Sc2ccccc2NS(=O)(=O)c2ccc(NC(C)=O)cc2)nc1 the Potency was inconclusive: 1.58 µM [inhibitor, full curve, poor fit]. NCCSC1CC(=O)N(c2ccc(Cl)c(Cl)c2)C1=O (configuration not stated) was tested, and the Potency was “inactive”. In the case of Cc1cc2cc(CNC(=O)c3ccc(S(=O)(=O)N(C)C)cc3)ccc2n1C, the Potency is reported as inconclusive: 44.7 µM [inhibitor, partial curve, poor fit]. CC(Nc1ccc(Br)cc1)C(=O)N/N=C/c1ccccc1OCc1ccccc1 (configuration not stated) was tested, and the Potency was “inactive”.
